Data: PubChem BioAssay AID1508642 (National Center for Advancing Translational Sciences (NCATS), 2021)
About 200 (0.47%) of roughly 43,000 compounds were called active. Another 12% or so got no clear call; they are omitted. The call rests on the fitted dose curve; in most records, active means well fitted cell-killing curve with a large enough effect; inconclusive means small, poorly fitted or top-dose-only effect, or effect the other way; inactive means flat fitted curve, though single readings scatter. The list shows a part of the results.

Assay: Cell viability qHTS assay in S16 Pmp22-F2sN cells; further: nearly all actives have a fitted effect of over 65% in size
Conditions: S16 Pmp22-F2sN Schwann cells viability, CellTiter-Glo, 24 h; series mostly up to 57.5 µM; activity change, negative = cytotoxicity: at the top concentration
Procedure, shortened: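 S16 Pmp22-F2sN Schwann cells (500-1,000/well) in phenol-red-free DMEM with 10% FBS received 23 nL compound by pin tool for 24 h at 37 °C. Viability was then read as CellTiter-Glo luminescence after 15 min at room temperature.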
On the % scale 0 is the no-effect control and ±100 the full control effect.

Compound | activity change, negative = cytotoxicity
Cn1c(=O)oc2cc(S(=O)(=O)N3CCCC(C(=O)N4CCN(c5ccc(F)cc5)CC4)C3)ccc21 (stereo unspecified) | inactive: -6.55%
Cc1ccccc1OCC(=O)Nc1nnc(S(=O)(=O)N2CCCCCC2)s1 | inactive: 3.54%
CCc1nn2c(=O)cc(COC(=O)c3ccccc3NC(=O)c3ccc(C(C)(C)C)cc3)nc2s1 | inactive: 9.64%
O=C(Nc1c(C(=O)N2CCN(c3ccccc3F)CC2)oc2ccccc12)c1ccc(Br)o1 | inactive: 0.879%
Oc1ccccc1-c1nc2ccc(Cl)cn2c1Nc1ccc2c(c1)OCCO2 | inactive: -0.602%
CCS(=O)(=O)N1CCc2cc(C(=O)Nc3cccc(NC(C)=O)c3)ccc21 | inactive: 18.7%
COc1ccc(-c2ccc(=O)n(CC(=O)Nc3ccccc3C(F)(F)F)n2)cc1 | inactive: -4.98%
COc1ccc(-c2nc(CSc3nnc(C)n4c3cc3sccc34)c(C)o2)cc1 | inactive: 7.47%
Cc1ccc(C2c3[nH]c4ccccc4c3CCN2C(=O)CSc2ccccc2)cc1 (stereo unspecified) | inactive: -18.5%
COc1ccc(CNC(=O)C2=Cc3cccc(OC)c3OC2)cc1OC | inactive: 4.53%
COc1ccc(OC)c(NS(=O)(=O)c2ccc3c(c2)CCCN3C(=O)C2CCC2)c1 | inactive: -2.83%
O=C(Nc1ccc(F)cc1F)c1cc(CN2CCOCC2)on1 | inactive: -4.14%
COc1ccc(CNC(=O)Cn2c(=O)n3nc(-c4cccc(F)c4)nc3c3ccccc32)cc1OC | inactive: -3.07%
CCc1ccc(NC(=O)c2ccc(F)c(S(=O)(=O)N3CCc4ccccc4C3)c2)cc1 | inactive: -20.6%
Cc1cccc(NC(=O)C(Cc2ccccc2)N2Cc3ccccc3C2=O)c1C (stereo unspecified) | inactive: -0.276%
CCc1nn(CC(=O)NCCN(CC(C)C)CC(C)C)c(=O)c2cc3sc(C)cc3n12 | inactive: 5.49%
CCc1ccc(CNC(=O)c2ccc(-n3c(C)cc4c3CCC(C)C4)cc2)cc1 (stereo unspecified) | inactive: 0.134%
COc1cccc(C(c2sc3nc(-c4ccco4)nn3c2O)N2CCC3(CC2)OCCO3)c1 (stereo unspecified) | inactive: 0.609%
COc1cc(Br)c(C2CC(=O)Nc3cc4c(cc32)OCCO4)cc1OC (stereo unspecified) | inactive: -10.9%
O=C(NCC(c1ccc2c(c1)OCO2)N1CCOCC1)C(=O)Nc1ccc(Cl)cc1 (stereo unspecified) | inactive: 2.72%
Cc1ccccc1OCCSc1nnc(-c2ccc([N+](=O)[O-])cc2)o1 | inactive: -7.12%
Oc1cccc(-c2nc(-c3cccs3)c(-c3cccs3)[nH]2)c1 | inactive: -18.6%
CCCN(CCC)CCCNC(=O)c1sc2nc3n(c(=O)c2c1C)CCC3 | inactive: 7.97%
CCC1CCCCN1CCCNC(=O)c1sc2nc(C)cc(C)c2c1-n1cccc1 (stereo unspecified) | inactive: 5.69%
COc1ccccc1NC(=O)c1cc2c(n(-c3ccc(C)cc3)c1=O)CC(C)(C)CC2=O | inactive: -1.29%
O=C(c1ccc2c(c1)N(Cc1cccc(Cl)c1)C(=O)c1ccccc1S2(=O)=O)N1CCN(Cc2ccccc2)CC1 | inactive: -13.4%
